Drawing on PubChem BioAssay (NCI), this text covers TGI for one compound.

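Exposure lasted 48 hours, with cells grown in 96-well plates and compounds tested at five concentrations. TGI: concentration producing complete growth inhibition.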 Some entries of the source have several records that differ or are many. The list is limited to them. An entry can have further records. Records of one sample usually come from different ranges of test concentrations, not given here; some values may only mark the edge of a range.

Among the test systems are 786-0 renal; ACHN renal; BT-549 breast; CAKI-1 renal; EKVX NSCLC; HCT-15 colon; HL-60(TB) leukemia; HOP-92 NSCLC; HT29 colon; IGROV1 ovarian; LOX IMVI melanoma; MALME-3M melanoma; MDA-MB-435; MOLT-4 leukemia; NCI-H226 lung; NCI-H522 lung; RXF 393 renal; SK-MEL-2 melanoma; SK-MEL-5 melanoma; SW-620 colon; TK-10 renal; UO-31 renal.
Common to all, as to assay: inhibition of tumour cell growth, NCI panel, 48 h

In the case of `COc1ccc(C(=O)C#Cc2cnc(OC)nc2OC)cc1`, the TGI in the test on 786-0 renal was 3.85 µM and 38.6 mM; in the test with ACHN renal, 2.92 µM and 32.4 mM; in the test on BT-549 breast it was 3.37 µM and 81.6 mM; in the test with CAKI-1 renal, 3.09 µM and 64.3 mM; in the test with EKVX NSCLC it was 3.51 µM and 57.7 mM; in the test on HCT-15 colon it was 2.41 µM and 46.2 mM. Besides, the TGI with HL-60(TB) leukemia is 7.19 µM and 66.6 mM; with HOP-92 NSCLC, 3.45 µM and 42.1 mM; in the test with HT29 colon, 2.62 µM and 38.6 mM; in the test on IGROV1 ovarian it was 3.04 µM and 45.5 mM; in the test on LOX IMVI melanoma it was 356 nM and 34.5 mM; with MALME-3M melanoma, 3.44 µM and 34.4 mM. Besides, the TGI in the test on MDA-MB-435 was 10.2 µM and 78.5 mM; in the test on MOLT-4 leukemia it was 202 nM and 53.1 mM; with NCI-H226 lung it was 3.07 µM and 35.8 mM; in the test on NCI-H522 lung it was 3.13 µM and 30 mM; with RXF 393 renal, 3.44 µM and 46.5 mM; in the test on SK-MEL-2 melanoma, 3.5 µM and 98.7 mM. In addition, the TGI in the test with SK-MEL-5 melanoma was 2.82 µM and 92.6 mM; in the test with SW-620 colon, 2.13 µM and 77.7 mM; with TK-10 renal, 3.6 µM and 33.6 mM; in the test on UO-31 renal it was 2.55 µM and 34.6 mM.
